# Over roughly 110,000 compounds, “z-score” has its median near -0.1; the highest 2% begin near 2. Some of the results follow.
# Molecular target: Metabotropic glutamate receptor 8 (Rattus norvegicus) (UniProt P70579)
# Experiment: mGluR8 Gi/Go-coupled signaling modulation – cell-based, rat, thallium flux, HTS, primary screen (AID 488969)
# Details: HEK293 rat mGluR8, GIRK (G protein-gated inwardly rectifying potassium channel) thallium flux, FluoZin2; at 10 µM; stronger effect = higher value; submaximal glutamate (EC20) added with thallium
# Chain of UniProt P70579 (P70579 whole entry, looked up): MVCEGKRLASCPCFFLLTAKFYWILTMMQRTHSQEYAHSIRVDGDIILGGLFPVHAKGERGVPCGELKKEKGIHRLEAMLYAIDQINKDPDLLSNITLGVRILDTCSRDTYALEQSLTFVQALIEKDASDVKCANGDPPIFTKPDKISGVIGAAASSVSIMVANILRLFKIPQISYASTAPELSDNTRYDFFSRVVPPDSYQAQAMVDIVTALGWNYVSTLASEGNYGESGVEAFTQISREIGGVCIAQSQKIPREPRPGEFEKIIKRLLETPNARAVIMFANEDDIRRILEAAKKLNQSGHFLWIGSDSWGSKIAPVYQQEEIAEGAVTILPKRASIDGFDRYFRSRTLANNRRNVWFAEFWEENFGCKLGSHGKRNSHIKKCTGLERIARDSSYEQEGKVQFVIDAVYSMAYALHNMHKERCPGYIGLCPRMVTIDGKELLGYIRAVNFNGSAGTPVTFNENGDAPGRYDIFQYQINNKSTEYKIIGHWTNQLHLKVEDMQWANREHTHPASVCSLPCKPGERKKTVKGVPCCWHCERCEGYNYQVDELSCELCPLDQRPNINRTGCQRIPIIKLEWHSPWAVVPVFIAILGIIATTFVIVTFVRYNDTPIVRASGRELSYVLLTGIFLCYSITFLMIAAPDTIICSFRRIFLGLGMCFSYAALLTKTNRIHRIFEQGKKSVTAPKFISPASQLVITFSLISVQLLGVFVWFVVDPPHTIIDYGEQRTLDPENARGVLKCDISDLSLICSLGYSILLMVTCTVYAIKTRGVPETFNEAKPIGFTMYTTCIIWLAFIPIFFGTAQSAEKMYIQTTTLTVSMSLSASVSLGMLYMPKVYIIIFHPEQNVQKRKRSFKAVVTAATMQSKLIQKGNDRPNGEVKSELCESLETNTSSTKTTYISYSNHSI
row,SMILES,z-score
1,CCN(CC)S(=O)(=O)c1ccc(Oc2ccc(S(=O)(=O)N(CC)CC)cc2)cc1,0.0506
2,COc1ccc(C2CC(c3ccco3)n3ncnc3N2)cc1 (stereo unspecified),0.0305
3,C=C(C)Cn1c(-c2ccc(OC)cc2)nc2ccccc21,-1.35
4,CCC(=O)Nc1ccc(NC(=O)CN2CCCC(C)C2)c(Cl)c1 (stereo unspecified),-0.146
5,CCOc1cc(C)ccc1OCc1nnc(SCC(=O)c2cccc([N+](=O)[O-])c2)n1C,-0.139
6,CCOP(=O)(OCC)C(Nc1ccccn1)c1ccc(F)cc1 (stereo unspecified),-0.18
7,COCCCn1c(-c2ccc(S(=O)(=O)N3CCOCC3)cc2)csc1=Nc1ccccc1,0.966
8,CC1CC1C(=O)Nc1ccc(-c2ccccc2)cc1 (stereo unspecified),0.701
9,CCNC(=O)c1cc2c(=O)n3cccc(C)c3nc2n(Cc2ccc(C)cc2)c1=N,0.832
10,O=C(NCCC1=CCCCC1)C(=O)NCc1ccccc1,-0.143
11,COC(=O)Cn1c(=NC(=O)C(C)C)sc2c(C)cc(C)cc21,-0.633
12,CCc1ccc(NC(=S)N(CCCN2CCN(C)CC2)Cc2cccs2)cc1,-0.882
13,COc1cc(C(=O)NCc2ccccn2)ccc1OCc1c(C)noc1C,-0.106
14,Cn1c(C2CC(=O)N(Cc3ccccc3)C2)nc2ccccc21 (stereo unspecified),0.114
15,CC1(C(=O)Nc2nnc(C(C)(C)C)s2)Cc2ccccc2C(=O)O1 (stereo unspecified),-0.0542
16,CCn1c(CNc2ccc(F)cc2)nnc1SCC(=O)Nc1ccc(OC)cc1,-0.293
17,Cc1c(C(c2ccc([N+](=O)[O-])cc2)c2c(C)n(C)n(-c3ccccc3)c2=O)c(=O)n(-c2ccccc2)n1C,-0.329
18,Cc1cc(C)c[n+](CC(=O)c2cc3ccccc3oc2=O)c1,0.468
19,CCCc1nc2ccccc2c(C(=O)OC(C)C(=O)NCc2ccc3c(c2)OCO3)c1CC (stereo unspecified),-0.72

row,SMILES,z-score
1,CCc1[nH]nc2c1C(c1cccnc1)C(C#N)=C(N)O2 (stereo unspecified),0.367
2,O=C(CCCN1C(=O)c2cccc3cccc(c23)C1=O)N1CCN(c2ccccc2O)CC1,-0.81
3,Cc1ccc(C)c2c1cc(C)c1nnc(SCC(=O)NCc3ccc4c(c3)OCO4)n12,-0.918
4,COc1cc(/C=N/OCC(=O)NC2CCCCC2)ccc1OCc1ccccc1,-0.752
5,CCCc1cc(N2CCCC(C(=O)NCC)C2)n2ncnc2n1 (stereo unspecified),-0.213
6,O=C(CCc1ccccc1)N1CCN(c2ccccn2)CC1,-0.254
7,COCCn1nnnc1CN1CCN2CCCC2C1 (stereo unspecified),0.0773
8,Clc1nc(-c2ccccc2)cc(-c2ccc(Br)cc2)n1,-0.242
9,CC(C)n1nnnc1SCC(=O)NCc1ccco1,1.11
10,CC1=NN(c2ccccc2)C(=O)/C1=C\c1c(C)[nH]n(-c2ccccc2)c1=O,1.48
11,Cc1nc2ccccn2c1-c1csc(NCc2ccco2)n1,-1.95
12,COc1ccc(CCNC(=O)c2c(-c3ccccc3Cl)noc2C)cc1,0.099
13,O=C(CNC(=O)c1ccc(Oc2ccccc2)cc1)OC1CCCCC1=O (stereo unspecified),-0.12
14,Cc1ccc(NC(=O)c2cc(Cl)ccc2[N+](=O)[O-])cc1C,0.0161
15,CCc1ccc(NC(=O)N(CCN2CCOCC2)Cc2ccc3c(c2)CCCN3CC)cc1,0.069
16,CC(=O)Nc1ccc(C(=O)OCC(=O)c2ccc(C)c([N+](=O)[O-])c2)cc1,-0.0847
17,CC(C)N1C(=O)C2C(c3ccccc3O)NC(C)(C(=O)O)C2C1=O (stereo unspecified),0.39
18,Cc1nn(-c2ccccc2)c(C)c1C(=O)OCC(=O)N1c2ccccc2NC(=O)C1(C)C,-0.377
19,CCCNC(=O)CN(C)S(=O)(=O)c1c(C)cc(C)cc1C,0.408

row,SMILES,z-score
1,O=C(CSc1nnc(-c2ccc(S(=O)(=O)N3CCCC3)cc2)o1)N1CCCC1,-0.0514
2,C=CCn1ncc(OC)c(Cl)c1=O,-0.049
3,CCOC(=O)C1=C(C)N(CC)C(=S)NC1c1ccc(Cl)cc1 (stereo unspecified),-0.658
4,CNS(=O)(=O)c1cccc(C(=O)OC2CCCCC2=O)c1 (stereo unspecified),2.06
5,Cc1cccc(Nc2nnc(SCC3CCCCO3)s2)c1C (stereo unspecified),-0.0272
6,O=C1NC(=Nc2ccccc2)S/C1=C\C=C\c1ccco1,0.075
7,C(=N\NC1=Nc2cccc3cccc1c23)/c1ccccc1,-0.361
8,CC(=O)c1cccc(N(CC(=O)Nc2cccnc2)S(C)(=O)=O)c1,0.179
9,CCOC(=O)c1c(NC(=O)CNCC(O)CO)sc(C)c1C (stereo unspecified),-1.24
10,Cc1cc(S(=O)(=O)Nc2cccc(O)c2)c(C)s1,-0.746
11,O=C(O)c1cc2nc(-c3ccc(F)cc3)cc(C(F)(F)F)n2n1,-0.369
12,COc1ccc(OC)c(-c2cc(C(=O)Nc3c(C)nn(Cc4ccccc4C)c3C)no2)c1,-1.07
13,C/C(=N\NC(=O)Nc1ccccc1)c1ccccc1,-0.157
14,Cc1nc2c(c(-c3ccccc3)c1C#N)C(=O)c1ccccc1-2,-0.23
15,COc1ccc(NC(=O)CN(C)C2CCCCC2)c([N+](=O)[O-])c1,-0.45
16,CCOC(=O)Cn1nc(C)n(-c2ccc(C)cc2)c1=O,-0.0402
17,Cc1ccc(C)c(NC(=S)N2CCC(c3nc4ccccc4s3)CC2)c1,0.656
18,Cc1cc[n+](CC(=O)Nc2cc(C(F)(F)F)ccc2Cl)cc1,-0.139
